The supplement of paper PMC9446081
Among all 39,000 compounds or so, about 220 (0.56%) showed activity. The list shows a part of the results.

The compounds below were run on Escherichia coli K-12 BW25113 (assay: relative growth (OD600 normalised to plate interquartile mean) (fraction); higher = less growth inhibition, active = 0.2 or less). Settings: 50 µM; LB; incubation time: overnight (16-24 h).
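Also: static incubation at 37 °C against the wild-type strain, values averaged over two biological replicates.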

| SMILES | relative growth |
| --- | --- |
| CCNC(=O)C[C@H]1CC[C@@H]2[C@H](COC[C@H](O)CN2S(=O)(=O)c2ccc(Oc3ccccc3)cc2)O1 | inactive: 0.978 |
| C[C@H](CO)N1C[C@H](C)[C@H](CN(C)C(=O)NC2CCCCC2)OCCCC[C@H](C)Oc2ccc(NC(=O)Nc3ccccc3)cc2C1=O | inactive: 1.01 |
| C[C@@H]1COCCC(=O)N1 | inactive: 0.994 |
| O=C(C[C@@H]1C[C@H]2c3cc(NS(=O)(=O)c4ccc(F)cc4)ccc3O[C@H]2[C@@H](CO)O1)NCc1cccnc1 | inactive: 0.971 |
| CC(=O)OCC(COC(C)=O)OC(C)=O | inactive: 1.01 |
| Cc1noc(C)c1NC(=O)Nc1cccc2c1O[C@H](CN(C)S(C)(=O)=O)[C@H](C)CN([C@@H](C)CO)C2=O | inactive: 0.984 |
| C[C@@H]1CCCCO[C@@H](CN(C)S(=O)(=O)c2ccc(Cl)cc2)[C@H](C)CN([C@H](C)CO)C(=O)c2cc(NC(=O)Nc3ccc(F)cc3)ccc2O1 | inactive: 1.03 |
| C[C@@H]1CN([C@@H](C)CO)C(=O)c2cc(NC(=O)CCN3CCOCC3)ccc2O[C@@H]1CN(C)Cc1ccc(C(=O)O)cc1 | inactive: 0.944 |
| CO[C@@H]1CN(C)C(=O)c2ccc(NS(C)(=O)=O)cc2OC[C@@H](C)N(C(=O)c2ccc3c(c2)OCO3)C[C@@H]1C | inactive: 0.974 |
| COc1cccc(S(=O)(=O)Nc2ccc3c(c2)[C@@H]2C[C@H](CC(=O)NCC(F)(F)F)O[C@@H](CO)[C@@H]2O3)c1 | inactive: 1.01 |
| C[C@H]1CCCCN1C(=O)CCS(=O)(=O)c1ccc2c(c1)n(C)c(=O)c(=O)n2C | inactive: 0.918 |
| COc1ccc(NC(=O)N(C)C[C@H]2OCCCC[C@@H](C)Oc3ccc(NC(=O)c4ccccc4)cc3C(=O)N([C@@H](C)CO)C[C@@H]2C)cc1 | inactive: 1 |
| C[C@H](CO)N1C[C@H](C)[C@H](CN(C)S(=O)(=O)c2ccc(F)cc2)Oc2ccc(NC(=O)Cn3cnnn3)cc2CC1=O | inactive: 1.02 |
| C[C@@H]1CN([C@H](C)CO)C(=O)c2cc(NS(C)(=O)=O)ccc2O[C@@H]1CN(C)Cc1ccc(C(F)(F)F)cc1 | inactive: 0.968 |
| Cc1ccc(S(=O)(=O)N(C)C[C@H]2OCCCC[C@@H](C)Oc3ccc(NC(=O)NC4CCCCC4)cc3C(=O)N([C@@H](C)CO)C[C@@H]2C)cc1 | inactive: 1.01 |
| CCOc1ccc(CO[C@@H]2O[C@H](CO)[C@@H](O)[C@H](O)[C@H]2NC(C)=O)cc1OC | inactive: 1.02 |
| C[C@@H]1CN([C@@H](C)CO)S(=O)(=O)c2ccc(-c3cccnc3)cc2O[C@@H]1CN(C)C(=O)c1cccc(F)c1 | inactive: 0.98 |
| Cc1noc(C)c1NC(=O)Nc1ccc2c(c1)C(=O)N([C@@H](C)CO)C[C@H](C)[C@H](CN(C)Cc1ccncc1)OCCCC[C@H](C)O2 | inactive: 1 |
| O=c1cc[nH]c(=S)[nH]1 | inactive: 0.959 |
| CN[C@H]1[C@@H](O[C@H]2[C@@H](O[C@H]3[C@@H](O)[C@@H](O)[C@@H](NC(=N)N)[C@@H](O)[C@@H]3NC(=N)N)O[C@@H](C)[C@@]2(O)C=O)O[C@@H](CO)[C@@H](O)[C@@H]1O.CN[C@H]1[C@@H](O[C@H]2[C@@H](O[C@H]3[C@@H](O)[C@@H](O)[C@@H](NC(=N)N)[C@@H](O)[C@@H]3NC(=N)N)O[C@@H](C)[C@@]2(O)C=O)O[C@@H](CO)[C@@H](O)[C@@H]1O.O=S(=O)(O)O.O=S(=O)(O)O.O=S(=O)(O)O | inactive: 0.372 |

| SMILES | relative growth |
| --- | --- |
| Cc1ccc(S[C@]2(C(=O)NCC(C)C)CC(=O)N(Cc3cc(C(F)(F)F)cc(C(F)(F)F)c3)[C@@H]2c2ccc(CO)cc2)cc1 | inactive: 0.992 |
| Cc1noc(C)c1NC(=O)Nc1cccc2c1O[C@@H](CN(C)Cc1ccc(-c3ccccc3)cc1)[C@H](C)CN([C@H](C)CO)C2=O | inactive: 0.988 |
| C[C@H](CO)N1C[C@H](C)[C@@H](CN(C)S(=O)(=O)c2ccc(Cl)cc2)OCc2cn(nn2)CCCC1=O | inactive: 0.997 |
| C[C@H](CO)N1C[C@H](C)[C@@H](CN(C)C(=O)Nc2ccc(C(F)(F)F)cc2)OCCCC[C@H](C)Oc2ccc(NS(=O)(=O)c3ccc(Cl)cc3)cc2C1=O | inactive: 1.04 |
| C[C@@H]1CN([C@@H](C)CO)C(=O)Cc2cc(NS(=O)(=O)c3ccccc3)ccc2O[C@H]1CN(C)CC1CC1 | inactive: 1.01 |
| CCCNC(=O)Nc1ccc2c(c1)C(=O)N(C)C[C@H](OC)[C@@H](C)CN(C(=O)C1CCOCC1)[C@H](C)CO2 | inactive: 1.02 |
| COc1cccc(S(=O)(=O)Nc2ccc3c(c2)[C@@H]2C[C@@H](CC(=O)NCCc4ccccc4)O[C@@H](CO)[C@@H]2O3)c1 | inactive: 1.01 |
| C[C@H](CO)N1C[C@H](C)[C@@H](CN(C)C(=O)C2CCOCC2)Oc2cc(C3=CCCCC3)ccc2S1(=O)=O | inactive: 0.993 |
| C[C@@H]1CN([C@H](C)CO)C(=O)Cc2cc(NC(=O)CCCCCC(=O)Nc3ccccc3N)ccc2O[C@H]1CN(C)C(=O)Nc1ccc(C(F)(F)F)cc1 | inactive: 0.997 |
| CC(C)C#Cc1cnc2c(c1)C(=O)N([C@H](C)CO)C[C@H](C)[C@@H](CN(C)C(=O)c1ccc3c(c1)OCO3)O2 | inactive: 1 |
| C[C@H]1CN([C@@H](C)CO)C(=O)Cc2cc(NC(=O)CCCN(C)C)ccc2O[C@H]1CN(C)S(=O)(=O)c1ccccc1 | inactive: 0.977 |
| Cc1noc(C)c1S(=O)(=O)Nc1ccc2c(c1)C(=O)N([C@H](C)CO)C[C@@H](C)[C@H](CN(C)Cc1ccncc1)O2 | inactive: 1.02 |
| CC(C)(Sc1cc(C(C)(C)C)c(O)c(C(C)(C)C)c1)Sc1cc(C(C)(C)C)c(OC(=O)CCC(=O)O)c(C(C)(C)C)c1 | inactive: 0.821 |
| C[C@@H]1CN([C@@H](C)CO)C(=O)c2cc(NS(C)(=O)=O)ccc2O[C@@H](C)CCCCO[C@@H]1CN(C)Cc1ccc(C(F)(F)F)cc1 | inactive: 1.01 |
| Cc1ccc(S(=O)(=O)Nc2ccc3c(c2)C(=O)N([C@H](C)CO)C[C@H](C)[C@H](CN(C)C(=O)Nc2c(C)noc2C)OCCCC[C@H](C)O3)cc1 | inactive: 1.03 |
| Cc1c(C(=O)Nc2ccc3ccccc3c2)oc2ccccc12 | inactive: 1.01 |
| Cn1c(=O)c2c(nc3n2CC=NN3)n(C)c1=O | inactive: 0.956 |
| C[C@@H]1CN([C@@H](C)CO)S(=O)(=O)c2ccc(C#Cc3ccccc3F)cc2O[C@@H]1CN(C)CC1CCOCC1 | inactive: 1.04 |
| COc1ccc(NC(=O)Nc2ccc3c(c2)C(=O)N([C@@H](C)CO)C[C@@H](C)[C@H](CN(C)C(=O)Cc2ccccc2)OCCCC[C@@H](C)O3)cc1 | inactive: 1.01 |
| CC(=O)OCC=C(C)C=CC=C(C)C=CC1=C(C)CCCC1(C)C | inactive: 1.04 |

| SMILES | relative growth |
| --- | --- |
| CCN1CCC[C@@H]1CN1CNC(=S)NC1 | inactive: 0.944 |
| COCC#Cc1cnc2c(c1)C(=O)N([C@H](C)CO)C[C@H](C)[C@H](CN(C)S(=O)(=O)c1cccc(OC)c1)O2 | inactive: 1.01 |
| C[C@H](CO)N1C[C@H](C)[C@@H](CN(C)S(=O)(=O)c2cccs2)OCCCC[C@H](C)Oc2ccc(NC(=O)Nc3ccccc3)cc2C1=O | inactive: 1.01 |
| NNC(=O)c1ccccn1 | inactive: 1.02 |
| C[C@H]1CCCCO[C@H](CN(C)Cc2ccccc2)[C@@H](C)CN([C@@H](C)CO)C(=O)c2cc(NC(=O)Nc3cccc4ccccc34)ccc2O1 | inactive: 0.996 |
| Cc1noc(C)c1S(=O)(=O)N(C)C[C@H]1OCCCC[C@@H](C)Oc2ccc(NC(=O)Nc3cccc4ccccc34)cc2C(=O)N([C@H](C)CO)C[C@@H]1C | inactive: 1.01 |
| Cc1noc(C)c1NC(=O)Nc1ccc2c(c1)C(=O)N([C@@H](C)CO)C[C@@H](C)[C@@H](CN(C)Cc1ccc3c(c1)OCO3)OCCCC[C@@H](C)O2 | inactive: 0.966 |
| COC(=O)c1cn(CC(N)=O)c2ccccc12 | inactive: 0.972 |
| C[C@@H]1CN([C@@H](C)CO)C(=O)c2cc(NS(=O)(=O)c3ccccc3)ccc2O[C@H]1CN(C)Cc1ccncc1 | inactive: 1.02 |
| C[C@@H]1CCCCO[C@@H](CN(C)CC2CCCCC2)[C@H](C)CN([C@@H](C)CO)C(=O)c2cc(NC(=O)CCCCCC(=O)Nc3ccccc3N)ccc2O1 | inactive: 0.957 |
| Nc1ncnc(N[C@H]2CCS(=O)(=O)C2)c1[N+](=O)[O-] | inactive: 1.01 |
| COc1ccc(S(=O)(=O)N(C)C[C@@H]2Oc3ccc(NS(=O)(=O)c4c(C)noc4C)cc3CC(=O)N([C@@H](C)CO)C[C@@H]2C)cc1 | inactive: 0.968 |
| C[C@@H]1CN([C@@H](C)CO)C(=O)c2cc(NC(=O)Nc3cccc4ccccc34)ccc2O[C@@H](C)CCCCO[C@H]1CN(C)C(=O)c1ccccc1 | inactive: 1.01 |
| COc1ccc(S(=O)(=O)N(C)C[C@H]2Oc3c(NC(=O)c4cc(C)nn4C)cccc3C(=O)N([C@H](C)CO)C[C@@H]2C)cc1 | inactive: 0.996 |
| O=C(C[C@H]1CC[C@H](NC(=O)CN2CCOCC2)[C@@H](CO)O1)NCc1cccc(F)c1 | inactive: 0.977 |
| CS(=O)(=O)c1nnnn1-c1ccc2c(c1)OCO2 | inactive: 0.995 |
| O=C(C[C@@H]1C[C@H]2c3cc(NS(=O)(=O)c4ccc(F)cc4)ccc3O[C@H]2[C@@H](CO)O1)NCCN1CCCCC1 | inactive: 0.987 |
| C#Cc1cnc(OC)cn1 | inactive: 0.992 |
| Cc1noc(C)c1S(=O)(=O)Nc1ccc2c(c1)C(=O)N([C@@H](C)CO)C[C@@H](C)[C@H](CN(C)Cc1ccc(Cl)c(Cl)c1)OCCCC[C@@H](C)O2 | inactive: 0.987 |
